Assay results as given in article PMC9845754.
These are yes or no findings as the source states them, for the method shown. For some of these results: In cells and extracts the contact can be indirect. Some results given as binding are weak or reduced against the parent protein; the word gives no strength. Tags and fused reporters may be left off the sequences shown.

Amino acid sequences for entries named in this document (tags omitted).
UniProt O82481: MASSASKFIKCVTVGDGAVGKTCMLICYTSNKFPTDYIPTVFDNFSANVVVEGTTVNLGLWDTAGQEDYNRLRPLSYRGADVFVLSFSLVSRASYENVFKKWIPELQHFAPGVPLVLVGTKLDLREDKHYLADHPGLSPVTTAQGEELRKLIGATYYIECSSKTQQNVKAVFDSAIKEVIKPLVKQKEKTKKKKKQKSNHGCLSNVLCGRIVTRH

Experiments:
[1] = biological target: T1, ICR5, yeast two-hybrid fusion (Arabidopsis) (UniProt Q8VYU8); assay: two-hybrid; S. cerevisiae PJ69-4a; dilution series 1, 1/10, 1/100, 1/1,000 on -Leu, Trp, His (-LTH) plates with 1 mM 3-AT, -LT plates as growth control; 28°C
T1 sequence: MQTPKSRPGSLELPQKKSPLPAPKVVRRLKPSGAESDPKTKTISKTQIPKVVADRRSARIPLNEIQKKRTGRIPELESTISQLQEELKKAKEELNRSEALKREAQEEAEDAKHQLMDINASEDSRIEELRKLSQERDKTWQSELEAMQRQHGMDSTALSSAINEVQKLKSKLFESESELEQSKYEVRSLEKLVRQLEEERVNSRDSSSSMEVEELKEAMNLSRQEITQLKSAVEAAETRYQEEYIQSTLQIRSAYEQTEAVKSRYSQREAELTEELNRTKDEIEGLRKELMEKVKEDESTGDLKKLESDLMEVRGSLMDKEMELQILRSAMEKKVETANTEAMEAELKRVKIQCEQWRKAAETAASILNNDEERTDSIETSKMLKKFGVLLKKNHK

[2] = biological target: T2, ICR3, yeast two-hybrid fusion (Arabidopsis) (UniProt Q9LSS5); assay: as above
T2 sequence: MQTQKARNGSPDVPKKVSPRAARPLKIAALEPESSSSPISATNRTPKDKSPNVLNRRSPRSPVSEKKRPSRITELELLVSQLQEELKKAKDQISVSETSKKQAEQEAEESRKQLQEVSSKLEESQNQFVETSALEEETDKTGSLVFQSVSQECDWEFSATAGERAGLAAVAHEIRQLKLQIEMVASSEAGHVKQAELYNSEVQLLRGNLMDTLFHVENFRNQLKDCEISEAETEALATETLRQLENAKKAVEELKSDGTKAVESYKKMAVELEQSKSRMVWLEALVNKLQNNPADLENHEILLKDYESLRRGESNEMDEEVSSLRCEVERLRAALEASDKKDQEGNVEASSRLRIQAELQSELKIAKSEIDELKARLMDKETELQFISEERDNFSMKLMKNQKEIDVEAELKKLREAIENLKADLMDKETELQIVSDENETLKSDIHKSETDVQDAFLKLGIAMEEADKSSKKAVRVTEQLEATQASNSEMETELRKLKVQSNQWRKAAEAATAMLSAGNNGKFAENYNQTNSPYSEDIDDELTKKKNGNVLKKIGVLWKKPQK

[3] = biological target: T3, ICR2, yeast two-hybrid fusion (Arabidopsis) (UniProt Q9ZQC5); assay: as above
T3 sequence: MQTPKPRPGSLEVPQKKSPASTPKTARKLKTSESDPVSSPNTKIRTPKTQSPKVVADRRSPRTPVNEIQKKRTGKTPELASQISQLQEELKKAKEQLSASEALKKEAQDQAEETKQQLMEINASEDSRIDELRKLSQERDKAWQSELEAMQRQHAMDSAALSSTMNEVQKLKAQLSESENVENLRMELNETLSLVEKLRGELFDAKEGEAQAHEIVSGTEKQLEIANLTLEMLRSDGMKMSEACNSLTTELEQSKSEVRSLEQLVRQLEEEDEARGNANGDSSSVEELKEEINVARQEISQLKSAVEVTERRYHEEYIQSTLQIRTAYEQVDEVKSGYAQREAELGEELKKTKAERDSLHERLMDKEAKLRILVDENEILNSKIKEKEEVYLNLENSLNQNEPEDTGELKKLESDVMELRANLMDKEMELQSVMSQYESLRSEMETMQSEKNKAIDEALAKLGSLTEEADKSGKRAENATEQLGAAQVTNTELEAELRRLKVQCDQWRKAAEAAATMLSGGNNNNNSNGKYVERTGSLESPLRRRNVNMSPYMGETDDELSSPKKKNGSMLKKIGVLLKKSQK

[4] = biological target: T4, ICR5-YC (interactor of constitutively active ROP 5 fused to the C-terminal half of YFP) (Arabidopsis) (UniProt Q8VYU8); assay: split reporter; BiFC with halves of YFP (YN, YC), transient expression in N. benthamiana leaf epidermis cells; confocal imaging, for some panels lambda scan 521-690 nm and linear unmixing of the YFP signal
T4 sequence: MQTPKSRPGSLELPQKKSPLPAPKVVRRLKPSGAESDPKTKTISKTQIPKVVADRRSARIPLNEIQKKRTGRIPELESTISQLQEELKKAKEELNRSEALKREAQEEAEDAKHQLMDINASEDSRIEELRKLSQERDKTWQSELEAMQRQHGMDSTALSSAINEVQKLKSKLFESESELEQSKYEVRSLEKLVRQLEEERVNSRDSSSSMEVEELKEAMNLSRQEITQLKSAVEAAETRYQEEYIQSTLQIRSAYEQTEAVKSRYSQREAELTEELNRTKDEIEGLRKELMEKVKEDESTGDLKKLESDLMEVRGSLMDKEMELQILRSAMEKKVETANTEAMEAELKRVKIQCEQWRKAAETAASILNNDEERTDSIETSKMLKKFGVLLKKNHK

YN-ROP11 = YN-ROP11 (UniProt O82481); assay: as above
[5] = biological target: T1, ICR5, yeast two-hybrid fusion (Arabidopsis); assay: two-hybrid; yeast two-hybrid in S. cerevisiae PJ69-4a; pGBT9.BS and pGAD.GH fusions; growth of four decimal dilutions on -Leu -Trp -His medium with 1 mM 3AT, 28°C
[6] = biological target: T2, ICR3, yeast two-hybrid fusion (Arabidopsis); assay: as above

B1: ICR2, yeast two-hybrid fusion (protein, UniProt Q9ZQC5 1-583)
chain: MQTPKPRPGSLEVPQKKSPASTPKTARKLKTSESDPVSSPNTKIRTPKTQSPKVVADRRSPRTPVNEIQKKRTGKTPELASQISQLQEELKKAKEQLSASEALKKEAQDQAEETKQQLMEINASEDSRIDELRKLSQERDKAWQSELEAMQRQHAMDSAALSSTMNEVQKLKAQLSESENVENLRMELNETLSLVEKLRGELFDAKEGEAQAHEIVSGTEKQLEIANLTLEMLRSDGMKMSEACNSLTTELEQSKSEVRSLEQLVRQLEEEDEARGNANGDSSSVEELKEEINVARQEISQLKSAVEVTERRYHEEYIQSTLQIRTAYEQVDEVKSGYAQREAELGEELKKTKAERDSLHERLMDKEAKLRILVDENEILNSKIKEKEEVYLNLENSLNQNEPEDTGELKKLESDVMELRANLMDKEMELQSVMSQYESLRSEMETMQSEKNKAIDEALAKLGSLTEEADKSGKRAENATEQLGAAQVTNTELEAELRRLKVQCDQWRKAAEAAATMLSGGNNNNNSNGKYVERTGSLESPLRRRNVNMSPYMGETDDELSSPKKKNGSMLKKIGVLLKKSQK
B1 was tested. Which binding [1] did it give?
The binding was “no binding”.

What about the binding [2] of the same binder?
Its binding is “no binding”.

What about the binding [3] of the same binder?
Its binding is “no binding”.

B2: ICR5-YC (interactor of constitutively active ROP 5 fused to the C-terminal half of YFP) (protein, UniProt Q8VYU8 1-396)
chain: MQTPKSRPGSLELPQKKSPLPAPKVVRRLKPSGAESDPKTKTISKTQIPKVVADRRSARIPLNEIQKKRTGRIPELESTISQLQEELKKAKEELNRSEALKREAQEEAEDAKHQLMDINASEDSRIEELRKLSQERDKTWQSELEAMQRQHGMDSTALSSAINEVQKLKSKLFESESELEQSKYEVRSLEKLVRQLEEERVNSRDSSSSMEVEELKEAMNLSRQEITQLKSAVEAAETRYQEEYIQSTLQIRSAYEQTEAVKSRYSQREAELTEELNRTKDEIEGLRKELMEKVKEDESTGDLKKLESDLMEVRGSLMDKEMELQILRSAMEKKVETANTEAMEAELKRVKIQCEQWRKAAETAASILNNDEERTDSIETSKMLKKFGVLLKKNHK
Which results are given for B2?
binding [4]: no binding; binding (YN-ROP11): binds

B3: ICR3, yeast two-hybrid fusion (protein, UniProt Q9LSS5 1-564)
chain: MQTQKARNGSPDVPKKVSPRAARPLKIAALEPESSSSPISATNRTPKDKSPNVLNRRSPRSPVSEKKRPSRITELELLVSQLQEELKKAKDQISVSETSKKQAEQEAEESRKQLQEVSSKLEESQNQFVETSALEEETDKTGSLVFQSVSQECDWEFSATAGERAGLAAVAHEIRQLKLQIEMVASSEAGHVKQAELYNSEVQLLRGNLMDTLFHVENFRNQLKDCEISEAETEALATETLRQLENAKKAVEELKSDGTKAVESYKKMAVELEQSKSRMVWLEALVNKLQNNPADLENHEILLKDYESLRRGESNEMDEEVSSLRCEVERLRAALEASDKKDQEGNVEASSRLRIQAELQSELKIAKSEIDELKARLMDKETELQFISEERDNFSMKLMKNQKEIDVEAELKKLREAIENLKADLMDKETELQIVSDENETLKSDIHKSETDVQDAFLKLGIAMEEADKSSKKAVRVTEQLEATQASNSEMETELRKLKVQSNQWRKAAEAATAMLSAGNNGKFAENYNQTNSPYSEDIDDELTKKKNGNVLKKIGVLWKKPQK
What does the source list for B3?
binding [5]: no binding; binding [6]: no binding
